In PubChem BioAssay (NCI):
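The compound was tested at five concentrations on cells cultured in 96-well plates, with a 48-hour exposure period. At the TGI there is no net growth.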 Not every entry of the source has a single result; some have several. The list is limited to them. The source may hold further records. Records of one sample usually come from different ranges of test concentrations, not given here; some values may only mark the edge of a range. *1 amine or outer side, *2 acyl side, *3 side chain or, on linkers, in order; H or OH if unused. Where a SMILES comes first, the peptide text is derived from it. [ ]: non-standard residue; d: D form. X3 = CC[C@H](C)[C@H](OC(=O)[C@@H](C)[C@@H](CC)N[*:1])C(=O)[*:2]; X4 = C[C@H](N[*:1])C(=O)C(C)(C)C(=O)[*:2]; NMeY = CN[C@@H](Cc1ccc(O)cc1)C(=O)O; NMeL = CN[C@@H](CC(C)C)C(=O)O; NMeV = CN[C@H](C(=O)O)C(C)C

Tests used:
Experiment in all cases: growth of human tumour cells (NCI), 48 h
NCI-H522 lung = test system: NCI-H522 lung
OVCAR-3 ovarian = test system: OVCAR-3 ovarian
OVCAR-4 ovarian = test system: OVCAR-4 ovarian
UACC-257 melanoma = test system: UACC-257 melanoma
SF-268 CNS = test system: SF-268 CNS
SNB-75 CNS = test system: SNB-75 CNS
SK-OV-3 ovarian = test system: SK-OV-3 ovarian
HL-60(TB) leukemia = test system: HL-60(TB) leukemia
LOX IMVI melanoma = test system: LOX IMVI melanoma
MALME-3M melanoma = test system: MALME-3M melanoma

SMILES	TGI (NCI-H522 lung)	TGI (OVCAR-3 ovarian)	TGI (OVCAR-4 ovarian)	TGI (UACC-257 melanoma)	TGI (SF-268 CNS)	TGI (SNB-75 CNS)	TGI (SK-OV-3 ovarian)	TGI (HL-60(TB) leukemia)	TGI (LOX IMVI melanoma)	TGI (MALME-3M melanoma)
CSc1ncnc2c1CCN2	8.94 µM and > 100 µM	9.26 µM and > 100 µM	–	–	–	–	–	–	–	–
CC[C@H](C)[C@@H]1OC(=O)[C@@H](C)[C@@H](CC)NC(=O)[C@H](C)NC(=O)C(C)(C)C(=O)[C@H](C)NC(=O)[C@H](Cc2ccc(OC)cc2)N(C)C(=O)[C@H](C(C)C)N(C)C(=O)CNC(=O)[C@H](CC(C)C)N(C)C(=O)CNC1=O (cyclo(A[X3]G[NMeL]G[NMeV][NMeY](Me)[X4]))	694 nM and 39.2 nM	–	513 nM and 30.5 nM	6.61 µM and 271 nM	6.72 µM and 638 nM	1.16 µM and < 22.4 nM	2.36 µM and 143 nM	1.31 µM and 26.5 nM	1.06 µM and 47.7 nM	4.77 µM and 344 nM
